Experimental data reported in the supplement of paper PMC9446081.
About 220 (0.56%) of roughly 39,000 compounds showed activity. Some of the results follow.

test system: Escherichia coli K-12 BW25113; test: relative growth (OD600 normalised to plate interquartile mean) (fraction); higher = less growth inhibition, active = 0.2 or less; conditions: 50 µM; LB; incubation time: overnight (16-24 h)
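Note: static incubation at 37 °C against the wild-type strain, values averaged over two biological replicates.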

Row | Compound | relative growth
1 | C[C@@H]1CN([C@@H](C)CO)C(=O)c2cc(NC(=O)CCCN(C)C)ccc2O[C@H]1CN(C)C(=O)Nc1ccc2c(c1)OCO2 | inactive: 0.975
2 | C[C@@H]1CCCCO[C@@H](CN(C)S(=O)(=O)c2cn(C)cn2)[C@H](C)CN([C@@H](C)CO)C(=O)c2cc(NS(=O)(=O)c3ccc(F)cc3)ccc2O1 | inactive: 1.01
3 | Oc1ccc(Oc2ccccc2)cc1 | inactive: 0.93
4 | O=C1O[C@@H](c2ccccc2)[C@@H](c2ccccc2)N2[C@@H](c3ccc(O)cc3)[C@]3(C(=O)Nc4ccccc43)[C@@H](C(=O)NC[C@H](O)c3ccccc3)[C@H]12 | inactive: 1.01
5 | O=C(CCCCCNC(=O)OCc1ccc(CO[C@H]2C[C@@H](c3csc4ccccc34)C=C(C(=O)N3CCN(Cc4ccc5c(c4)OCO5)CC3)O2)cc1)NO | inactive: 0.995
6 | C[C@H]1CCCCO[C@H](CN(C)S(=O)(=O)c2cn(C)cn2)[C@@H](C)CN([C@@H](C)CO)C(=O)c2cc(NC(=O)Nc3ccc(C(F)(F)F)cc3)ccc2O1 | inactive: 0.96
7 | CC(C)NC(=O)N(C)C[C@@H]1Oc2ccc(NC(=O)Cn3cnnn3)cc2CC(=O)N([C@@H](C)CO)C[C@H]1C | inactive: 1
8 | O=C(O)Cc1ccc(O)c(O)c1 | inactive: 1
9 | C[C@@H]1CN([C@@H](C)CO)S(=O)(=O)c2ccc(-c3cncnc3)cc2O[C@@H]1CN(C)C(=O)Cc1ccccc1 | inactive: 0.985
10 | Cc1cc(C(=O)Nc2cccc3c2O[C@@H](CN(C)C(=O)NC(C)C)[C@H](C)CN([C@@H](C)CO)C3=O)n(C)n1 | inactive: 0.995
11 | O=C(CCCCC(=O)N/N=C/c1cc[n+]([O-])cc1)NO | inactive: 0.993
12 | C[C@H]1CN([C@@H](C)CO)C(=O)Cc2cc(NC(=O)Nc3ccc(Cl)c(Cl)c3)ccc2O[C@H]1CN(C)S(=O)(=O)c1ccc(Cl)cc1 | inactive: 1.01
13 | O=C(N[C@@H]1CC[C@@H](CCNS(=O)(=O)c2ccc(F)cc2)O[C@@H]1CO)C1CC1 | inactive: 0.969
14 | N#CCSc1n[nH]c(=O)[nH]c1=O | inactive: 1.02
15 | COC(=O)C(Cc1ccccc1)NC(=O)C(N)CC(=O)O (configuration not stated) | inactive: 0.995
16 | C[C@@H]1CCCCO[C@H](CN(C)Cc2ccc(Cl)c(Cl)c2)[C@H](C)CN([C@@H](C)CO)C(=O)c2cc(NS(=O)(=O)c3cn(C)cn3)ccc2O1 | inactive: 0.986
17 | COCCNC(=O)C[C@H]1C[C@@H]2c3cc(NC(=O)Nc4ccc(C(F)(F)F)cc4)ccc3O[C@@H]2[C@H](CO)O1 | inactive: 1
18 | O=C1CCC(=O)N1Cc1cccc(CN2C(=O)[C@]3(CC(=O)N(Cc4ccccc4)C3=O)c3ccccc32)c1 | inactive: 1.03
19 | C[C@@H]1CCCCO[C@H](CN(C)C(=O)NC2CCCCC2)[C@@H](C)CN([C@@H](C)CO)C(=O)c2cc(NC(=O)c3ccccc3)ccc2O1 | inactive: 1.03
20 | COc1ccc([Si](C)(C)[C@H]2[C@H](CCO)O[C@@]3(C(=O)N(Cc4ccc(N5CCCCC5=O)cc4)c4ccccc43)[C@@H]2C)cc1 | inactive: 1.02
21 | Cc1noc(C)c1S(=O)(=O)N(C)C[C@H]1Oc2c(NS(C)(=O)=O)cccc2C(=O)N([C@@H](C)CO)C[C@H]1C | inactive: 0.978

Row | Compound | relative growth
22 | CCS(=O)(=O)Nc1ccc2c(c1)C(=O)N(C)C[C@H](OC)[C@H](C)CN(CCC(F)(F)F)[C@H](C)CO2 | inactive: 0.959
23 | COc1cc(N2CC[C@H]3O[C@@H](C(=O)NCCN(C)C)C[C@H]32)ncn1 | inactive: 1.01
24 | C[C@H]1CN([C@@H](C)CO)C(=O)Cc2cc(NS(=O)(=O)c3ccccc3)ccc2O[C@H]1CN(C)Cc1ccc(Oc2ccccc2)cc1 | inactive: 1.02
25 | O=C(C[C@H]1C=C[C@@H](NC(=O)c2ccc(F)cc2)[C@@H](CO)O1)NCc1ccncn1 | inactive: 1
26 | CC(C)(C)[S@@](=O)N1Cc2cc(C(=O)N[C@H]3CCN(Cc4ccccc4)C3)nc(-c3cccc(-c4ccncc4)c3)c2[C@H]1CCO | inactive: 0.996
27 | CC(C)CC#Cc1cnc2c(c1)C(=O)N([C@@H](C)CO)C[C@@H](C)[C@@H](CN(C)S(=O)(=O)c1cn(C)cn1)O2 | inactive: 1.01
28 | COC(=O)c1c(CC[C@@H](CO)NC(=O)N[C@H](Cc2ccccc2)Cn2cc(-c3ccccn3)nn2)oc(C(C)=O)c1C(=O)OC | inactive: 1
29 | CCCCN(CCCC)CC[C@@H](O)c1cc2c(Cl)cc(Cl)cc2c2cc(C(F)(F)F)ccc12 | inactive: 1.01
30 | C[C@H](CO)N1C[C@H](C)[C@@H](CN(C)Cc2ccc(Cl)c(Cl)c2)Oc2ccc(NS(=O)(=O)c3ccc(Cl)cc3)cc2CC1=O | inactive: 1.03
31 | C[C@@H]1CN([C@H](C)CO)C(=O)c2cc(NC(=O)C3CCCCC3)ccc2O[C@H]1CN(C)Cc1ccc(Cl)c(Cl)c1 | inactive: 1.02
32 | O=C(C[C@@H]1CC[C@H]2[C@@H](COC[C@H](O)CN2C(=O)c2cccnc2)O1)NCc1ccc(-c2ccccc2)cc1 | inactive: 0.976
33 | Cc1ccccc1S(=O)(=O)N1C[C@H](O)COC[C@H]2O[C@@H](CC(=O)N3CCC(Cc4ccccc4)CC3)CC[C@@H]21 | inactive: 0.958
34 | COCC#Cc1ccc2c(c1)O[C@@H](CN(C)S(=O)(=O)c1ccc(F)cc1)[C@@H](C)CN([C@H](C)CO)S2(=O)=O | inactive: 1.01
35 | CC(=O)OC1CCC2(C)C(CCC3(C)C2CCC24OC(=O)C5(CCC(C)C(C)C52)CCC34C)C1(C)C (configuration not stated) | inactive: 1.02
36 | C=C(C)C1CC=C(CO)CC1 (configuration not stated) | inactive: 1.05
37 | C[C@H]1CN([C@@H](C)CO)C(=O)Cc2cc(NS(=O)(=O)c3cn(C)cn3)ccc2O[C@@H]1CN(C)Cc1ccc(C(=O)O)cc1 | inactive: 0.964
38 | C[C@@H]1CN([C@H](C)CO)S(=O)(=O)c2ccc(Br)cc2O[C@H]1CN(C)C(=O)Cc1ccccn1 | inactive: 0.996
39 | C[C@@H]1CN([C@@H](C)CO)C(=O)c2cc(NS(=O)(=O)c3ccc(Cl)cc3)ccc2O[C@@H](C)CCCCO[C@H]1CN(C)C(=O)c1ccccc1 | inactive: 1.01
40 | Cc1ccc(S(=O)(=O)N(C)C[C@@H]2Oc3c(NC(=O)C4CC4)cccc3C(=O)N([C@H](C)CO)C[C@H]2C)cc1 | inactive: 0.983
41 | CON | inactive: 0.981
42 | C[C@H]1CN([C@@H](C)CO)C(=O)c2cccc(NC(=O)c3ccncc3)c2O[C@H]1CN(C)C(=O)Nc1ccc2c(c1)OCO2 | inactive: 1.01

Row | Compound | relative growth
43 | C[C@@H]1CN([C@@H](C)CO)C(=O)c2cccc(NC(=O)c3ccncc3)c2O[C@H]1CN(C)S(=O)(=O)c1cn(C)cn1 | inactive: 0.99
44 | Cc1noc(C)c1S(=O)(=O)N(C)C[C@@H]1Oc2c(NC(=O)C3CC3)cccc2C(=O)N([C@H](C)CO)C[C@@H]1C | inactive: 0.996
45 | O=C(O)Cn1cccn1 | inactive: 0.969
46 | CCCN(C)C[C@@H]1OCCCC[C@@H](C)Oc2ccc(NS(C)(=O)=O)cc2C(=O)N([C@H](C)CO)C[C@@H]1C | inactive: 0.984
47 | O=C(C[C@@H]1CC[C@H]2[C@@H](COC[C@H](O)CN2Cc2ccccc2F)O1)N[C@H]1CCN(Cc2ccccc2)C1 | inactive: 0.979
48 | CC(C)(N)c1cc(C(=O)N[C@@H]2CCc3ccc(Oc4ccnc5c4CCC(=O)N5)cc3C2)cc(C(F)(F)F)c1 | inactive: 0.962
49 | Cc1csc(-c2nnc(Nc3ccc(Oc4ncccc4-c4ccnc(N)n4)cc3)c3ccccc23)c1 | inactive: 1.05
50 | C[C@@H]1CN([C@H](C)CO)S(=O)(=O)c2ccc(/C=C/c3ccccc3)cc2O[C@@H]1CN(C)C(=O)CN1CCOCC1 | inactive: 1.02
51 | COc1ccc(S(=O)(=O)Nc2ccc3c(c2)C(=O)N([C@@H](C)CO)C[C@@H](C)[C@H](CN(C)Cc2ccc(C(=O)O)cc2)OCCCC[C@H](C)O3)cc1 | inactive: 0.998
52 | CC(=O)O[C@H]1C[C@@]2(C)[C@@H](C[C@@H](O)[C@H]3[C@@]4(C)CC[C@@H](O)[C@@H](C)[C@H]4CC[C@@]32C)C1=C(CCC=C(C)C)C(=O)O | inactive: 0.959
53 | C[C@@H]1CCCCO[C@@H](CN(C)C(=O)Nc2ccccc2)[C@@H](C)CN([C@H](C)CO)C(=O)c2cc(NC(=O)Nc3ccccc3)ccc2O1 | inactive: 1.02
54 | C[C@@H]1CN([C@@H](C)CO)C(=O)c2cccc(NS(=O)(=O)c3cccs3)c2O[C@@H]1CN(C)S(=O)(=O)c1cccs1 | inactive: 1.01
55 | Cc1ccc(S(=O)(=O)N(C)C[C@@H]2OCCCC[C@@H](C)Oc3ccc(NC(=O)Nc4cccc5ccccc45)cc3C(=O)N([C@H](C)CO)C[C@@H]2C)cc1 | inactive: 1.04
56 | C[C@H](CO)N1C[C@H](C)[C@H](CN(C)S(=O)(=O)c2ccc(Cl)cc2)OCCCC[C@H](C)Oc2ccc(NC(=O)Nc3cccc4ccccc34)cc2C1=O | inactive: 1.06
57 | CCOC(=O)c1c(CN2CCN(c3ccccc3)CC2)n(C2CCCCC2)c2cc(Br)c(O)cc12 | inactive: 1.01
58 | C[C@H](CO)N1C[C@H](C)[C@@H](CN(C)Cc2ccc(C(=O)Nc3ccccc3N)cc2)Oc2ccc(NC(=O)Nc3ccccc3)cc2CC1=O | inactive: 0.996
59 | OCCN1CCCNCC1 | inactive: 1.03
60 | Cc1[nH]c(SCCC(=O)O)nc(=O)c1C | inactive: 1.04
61 | C[C@H]1CN([C@@H](C)CO)C(=O)Cc2cc(NC(=O)Cn3cnnn3)ccc2O[C@@H]1CN(C)C(=O)NC1CCCCC1 | inactive: 0.927
62 | COc1cccc(NC(=O)N(C)C[C@@H]2Oc3ncc(C#Cc4cccnc4)cc3C(=O)N([C@@H](C)CO)C[C@H]2C)c1 | inactive: 0.999
